Measurements as given in the antibiotic and cytotoxicity screens of Wong et al. (2023).
The list shows a part of the results.

Legend:
HSkMC = human skeletal muscle cells; assay: cytotoxicity call (relative viability < 0.9); settings: 10 µM
HepG2 = assay: cytotoxicity call (relative viability < 0.9); settings: 10 µM
S. aureus RN4220 = assay: growth inhibition call (relative growth <= 0.2); settings: 50 µM

Structure (SMILES)	cytotoxicity call (HSkMC)	cytotoxicity call (HepG2)	growth inhibition call (S. aureus RN4220)
O=C(C[C@H]1CC[C@H]2[C@@H](COC[C@@H](O)CN2S(=O)(=O)c2ccc(Cl)cc2)O1)N[C@@H]1CCN(Cc2ccccc2)C1	inactive	active	inactive
C[C@@H]1CN([C@H](C)CO)C(=O)Cc2cc(NC(=O)Cc3cn(C)c4ccccc34)ccc2O[C@@H]1CN(C)Cc1ccc(-c2ccccc2)cc1	inactive	active	inactive
C[C@H]1CN([C@@H](C)CO)C(=O)Cc2cc(NC(=O)Cc3ccccc3)ccc2O[C@H]1CN(C)S(=O)(=O)c1cccs1	inactive	inactive	inactive
CSC1=NCN(CCCO)CN1	inactive	inactive	inactive
COc1ccc([Si](C)(C)[C@H]2[C@H](CCOC(=O)NCCCCCC(=O)NO)O[C@]3(C(=O)N(Cc4cccc(N5CCCCC5=O)c4)c4ccccc43)[C@@H]2C)cc1	inactive	inactive	inactive
C[C@H]1CN([C@@H](C)CO)C(=O)c2cc(NC(=O)Nc3ccc4c(c3)OCO4)ccc2O[C@@H]1CN(C)Cc1ccc(C(F)(F)F)cc1	inactive	inactive	inactive
Cc1ccc2nc(-c3ccncc3)cc(-c3ccccc3)c2c1	inactive	inactive	inactive
C[C@@H]1CN([C@@H](C)CO)C(=O)c2cccc(NC(=O)Nc3ccccc3)c2O[C@@H]1CN(C)C(=O)Nc1ccc(C(F)(F)F)cc1	inactive	inactive	inactive
C[C@H](CO)N1C[C@H](C)[C@H](CN(C)C(=O)Nc2ccccc2)OCCCC[C@H](C)Oc2ccc(NC(=O)c3ccncc3)cc2C1=O	inactive	inactive	inactive
C[C@@H]1CN([C@H](C)CO)C(=O)c2cc(NC(=O)Cn3cnnn3)ccc2O[C@H]1CN(C)Cc1ccc(-c2ccccc2)cc1	inactive	inactive	inactive
CC(C)(C)C(=O)C(Oc1ccc(Cl)cc1)n1ccnc1 (stereo unspecified)	inactive	inactive	inactive
O=C(c1ccc(Cl)cc1)c1coc2c1cc(O)c1ccccc12	active	active	inactive
CN(C)c1nc(SCCO)nc(N(C)C)n1	inactive	inactive	inactive
C[C@@H]1CCCCO[C@@H](CN(C)C(=O)Nc2cccc3ccccc23)[C@H](C)CN([C@@H](C)CO)C(=O)c2cc(NC(=O)Nc3cccc4ccccc34)ccc2O1	active	active	inactive
C[C@@H]1CCCCO[C@H](CN(C)C(=O)Cc2ccccc2)[C@H](C)CN([C@H](C)CO)C(=O)c2cc(NS(=O)(=O)c3ccc(Cl)cc3)ccc2O1	inactive	inactive	inactive
Cc1ccc(S(=O)(=O)N(C)C[C@@H]2Oc3ccc(NC(=O)CCCN(C)C)cc3C(=O)N([C@H](C)CO)C[C@@H]2C)cc1	inactive	inactive	inactive
C[C@H]1CN([C@@H](C)CO)C(=O)Cc2cc(NS(=O)(=O)c3cn(C)cn3)ccc2O[C@H]1CN(C)C(=O)Nc1ccc(F)cc1	inactive	inactive	inactive
C[C@@H]1CN([C@H](C)CO)C(=O)c2cc(NC(=O)CCCN(C)C)ccc2O[C@@H]1CN(C)C(=O)Nc1ccccc1	inactive	inactive	inactive
C[C@@H]1CCCCO[C@H](CN(C)CC2CCCCC2)[C@H](C)CN([C@@H](C)CO)C(=O)c2cc(NC(=O)C3CCCCC3)ccc2O1	inactive	inactive	inactive
COc1ccc(S(=O)(=O)Nc2ccc3c(c2)CC(=O)N([C@@H](C)CO)C[C@H](C)[C@@H](CN(C)S(=O)(=O)c2ccc(OC)cc2)O3)cc1	inactive	inactive	inactive
COc1ccc(S(=O)(=O)Nc2ccc3c(c2)C(=O)N([C@H](C)CO)C[C@H](C)[C@H](CN(C)Cc2ccccc2)OCCCC[C@@H](C)O3)cc1	inactive	inactive	inactive
C[C@H](CO)N1C[C@H](C)[C@H](CN(C)C(=O)Nc2cccc3ccccc23)Oc2ccc(NC(=O)CCC(F)(F)F)cc2C1=O	inactive	inactive	inactive
C[C@@H]1CN([C@@H](C)CO)C(=O)c2cc(NC(=O)Nc3cccc4ccccc34)ccc2O[C@@H](C)CCCCO[C@H]1CN(C)C(=O)Nc1ccc2c(c1)OCO2	inactive	inactive	inactive
CC(C)NC(=O)Nc1ccc2c(c1)CC(=O)N([C@@H](C)CO)C[C@@H](C)[C@H](CN(C)Cc1ccc(C(=O)O)cc1)O2	inactive	inactive	inactive
C[C@@H]1CN([C@@H](C)CO)C(=O)c2cc(NC(=O)Cc3ccccc3)ccc2O[C@H]1CN(C)Cc1ccc(Cl)c(Cl)c1	inactive	inactive	inactive
C[C@H]1CN([C@@H](C)CO)C(=O)c2cccc(NC(=O)c3ccc(-c4nccs4)cc3)c2O[C@@H]1CN(C)C(=O)Nc1cccc2ccccc12	inactive	inactive	inactive
Cc1noc(C)c1NC(=O)Nc1ccc2c(c1)C(=O)N([C@H](C)CO)C[C@H](C)[C@H](CN(C)C(=O)Nc1cccc3ccccc13)OCCCC[C@H](C)O2	active	inactive	inactive
